This is an account of results in the RNAGym collection of RNA variant scans (doi:10.1093/nar/gkz1192).

Read counts are not given, so values of variants with three or more changes are uncertain.

B1: CPEB3 Ribozyme (parent)
chain: UAACAGGGGGCCACAGCAGAAGCGUUCACGUCGCAGCCCCUGUCAGAUUCUGGUGAAUCUGCGAAUUCUGCUGUAUAUCUC

The data set covers variants of B1. The data set can be described thus: self-cleavage, relative activity (ratio to wild type); higher = more cleavage; in vitro, sequencing. In short, it runs like this:
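Barcoded CPEB3 ribozyme mutants, produced by rounds of error-prone PCR, self-cleaved while being transcribed with T7 RNA polymerase for 5 hours at 37°C and during a subsequent 15 min DNase I step before EDTA was added. Sequencing of template-switched cDNA on Illumina gave cleaved and total reads, and DNA sequencing assigned barcodes to variants. Each variant's relative activity is its cleaved/total read fraction divided by the unmutated ribozyme's fraction, averaged across three batches. A variant needed a minimum of 5 reads.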
For the variant UAACGGGGGGCCACAGCAGAAGCGUUCGCAUCGCAGCACCUGUCAGUUUCUGGUGAAUCUGCGAUUUCUGCUGUAUAUCUC, the self-cleavage amounted to 0.11.
UAACGGGGGGCCACAGCAGAUGCACUCACGUCGCAGCCCCUGUCAGAUUCUGGUGAAUCUGCGAAUUCUGCCGUAUAUCUC: the self-cleavage amounted to 0.09.
In the case of UAACGGGGGGCCACAGCAGUAGCGUUCACGUCGCAGCCCCUGUCAGAUUCUAGUGAAUCUGCGAAUUCUGCAGUAUAUCUC it was 0.11; in that of UAACGGGGGGCCACAGCAGUAGCGUUCACGUCGCAACCCCUGUCAGAUUCUGGUGAAUCUGCGAAUUCUGCUGCAUAUCUC, 0.1.
For UAACGGGGGGCCACAGCAGGAGCGUUCACGUCGCAGCCCCUGUCAGAUUCUGGUGAAUCUGCGAAUUCCGCUGUAUAUCUC, the self-cleavage was 0.33.
Consider UAACGGGGGGCCACAGCAGAGGCGUUCACGUCGCAGCCCCUGUCAGAUUCUGGUGAAUCUGCGAAUUCUGCUAUAUAUCAC, for which the self-cleavage stood at 0.9.
In the case of UAACGGGGGGCCACAGCAGAAGCGUUCGCGUCGCAGCCCCUGCCAGAUUCUGGUGAAUCUGCGAAUCCUGCUGUAUAACUC it was 0.08; in that of UAACGGGGGGCCACAGCAGAAGCGUUCGCGUCGCAGCCCCUGUCAGAUUCUGGCGAAUCUGCGGAUUCUGCUGUACACCUC, 0.42; in that of UAACGGGGGGCCACAGCAGUAGCGAACACGUCGCAGCCCCUGUCAGAUUCUGGUGAAUCUGCGAAUUCAGCUGUAUAUCUC, 0.09.
Then UAACGGGGGGCCACAGCAGUAGCGUUCACGUCGCAGCCCCAGUCAGAUUCUGGUGAAUCUGCGAAUUCUGCUGUAUACCUC, with 0.09; and UAACGGGGGGCCACAGCAGAAGCGUUCGCGUCGCAGCCCCGGUCAGAUUCUGGUGAAUCUGCGAAUUCUGCUGUAUAUCAC, with 0.45.
In the case of UAACGGGGGGCCACAGCAGAAGCGUUCCCGCCACAGCCCCUGUCAGAUUCUGGUGAAUCUGCGGAUUCUGCUGUAUAUCUC it was 0.2.
In the case of UAACGGGGGGCCACAGCAGAUGCACUCACGUCGCAGCCCCUGUCAGAUUCUGGUGAAUCUGCGAAUUCUGCUGUAUAUCUC, the self-cleavage worked out at 0.41.
On to UAACGGGGGGCCACAGCAGAAGCGUUCGCGUCGCAGCCCCCGUCAGAUUCUGGUGAAUCUGCGAGUUCUGCUGUAUAUCUC, for which the self-cleavage turned out to be 0.45.
In the case of UAACGGGGGGCCACAGCAGUAGCGUUCAUGUCGCAGCCCCUGUCAGAUUCUGGUGAAUCUGCGAAUUCUGCAGUAUAUCUC it was 0.21; in that of UAACGGGGGGCCACAGCAGGAGCGUUCACGUCGCAGCCCCUGUCAGAUUCUGGUGAAUCUGCGAACUCUGCUGUAUAUCCC, 0.07.
On to UAACGGGGGGCCACAGCAGAGGCGUUCACGUCGCAGCCCCUGUCAGACUCUGGUGAAUCUGCGAAUCCUGCUGUAUAUCUC, for which the self-cleavage was found to be 0.22.
As for UAACGGGGGGCCACAGCAGAAGCGUUCGUGUCGCAGCCCCUGUCAGAUUCUGGUGAAUCGGCGAAUUCUGCUGUAUGUCUC, the self-cleavage turned out to be 0.09.
In the case of UAACGGGGGGCCACAGCAGAGGCGUACACGUCGCAGCCCCUGUCAGAUUCCGGUGAAUCUGCGUUUUCUGCUGUAUAUCUC it was 0.19; in that of UAACGGGGGGCCACAGCAGAGGCGUUCACGUCGCAGCCCCUGUCAGAUUCUGGUGAAUCUGCGAAUUCUGCUGUAUAUCCC, 0.58.
In the case of UAACGGGGGGCCACAGCAGAGGCGUUCACGUCGCAGCCCCUGUCAGAUUCAGGUGAAUCUGCGAAUUCUGCUGUAUAUCUC it was 0.13.
UAACGGGGGGCCACAGCAGAAGCGUUCGCGUCGCAGCCCCUGUCAGAUUCUGGUGAAUCAGCGAAUUCUGCUGUAUAUCUC: the self-cleavage is 0.46.
In the case of UAACGGGGGGCCACAGCAGAAGCGUUCGCGUCGCAGCCCCUGCCAGAUUCUGGUGAAUCUGCGAAUCCUGCUGUAUAUCAC it was 0.05; in that of UAACGGGGGGCCACAGCAGUAGCGUUCACGUCGCAGCCCCUGUCAGAUUCUGGUGUAUCUGCGAAUUCUGCUGUAUACCUC, 0.2.
Then UAACGGGGGGCCACAGCAGAAGCGUUCGCGUCGCAGCCCCUGUCAGGUUCUGGUGGAUCUGCGAAUUCUGCUGUAUAUCUC, with 0.33; and UAACGGGGGGCCACAGCAGAUGCGUUCGCGCCGCAGCCCCUGUCAGAAUUUGGUGAAUCUGCGAAUUCUGCUGUAUAUCUC, with 0.11; and UAACGGGGGGCCACAGCAGAGGCGUUCACGUCGCAGCCCCUGUCAGAUUCUGGUGAAUCUGCGAAUUGUGCUGUAUAUCUC, with 0.49.
As to UAACGGGGGGCCACAGCAGAUGCGUCCACGUCGCAGGCCCUGUCAGAUUCCGGUGAAUCUGCGAAUUCUGCUGUAUAUCUC, the self-cleavage was 0.07.
On to UAACGGGGGGCCACAGCAGUAGCGUUCACGUCGCGGCCCCUGUCAGAUUCUGGUGAAUCUGCGAAUGCUGCUGUAUAUCUC, for which the self-cleavage came out at 0.72.
Then UAACGGGGGGCCACAGCAGAGGCGUUCACGUCGCAGCCCCUGUCAGAUUCAGGUGAAUCCGCGAAUUCUGCUGUAUAUCUC, with 0.09; and UAACGGGGGGCCACAGCAGAAGCGUUCGCGUCUCAGCCCCUGUCAGAUUCUGGUGAAUCUGCGAAUUCUGCCGUAUAUCUC, with 0.22.
With UAACGGGGGGCCACAGCAGAGGCGUUCACGUCGCAGCCCCUGUCGGAUUCUGGUGAAUCUGCGAAUUCUGCUGUAUAUCUC, the self-cleavage is 0.26.
For the variant UAACGGGGGGCCACAGCAGAAGCGUUCGCGUCGCAGCCCUCGUCAGAUUCUGGUGAAUCUGCGAAUUCCGCUGUAUAUAUC, the self-cleavage stood at 0.09.
Consider UAACGGGGGGCCACAGCAGAGGCGUUCACGUCGCAGCCCCUGUCAGAUUCUGGUGAAUCUGCGAAUUCCACUGUAUAUCUC, for which the self-cleavage was found to be 0.18.
In the case of UAACGGGGGGCCACAGCAGAUGCGUUCACGUCGCAGCCCCUGUCAGAUUCUGGUGAUUCUGCGAAUUCUGCUAUAUAUCUC it was 0.62; in that of UAACGGGGGGCCACAGCAGACGCGUUCACGCCGCAGCCCCUGUCAGAUUCUGGCGAAUCUGCGAAUUCUGCCGUAUAUCUC, 0.24.
In the case of UAACGGGGGGCCACAGCAGAAGCGUUCGCGUCGCAGCCCCUGUCAGAUUCUGGUGGAACUGCGAGCUCUGCUGUAUACCUC it was 0; in that of UAACGGGGGGCCACAGCAGAAGCGUUCCCGUCGCAGCCCCUGUCAGAUUCUGGUGAAUCUGCGAAUUCUGCUGUAUAUCGC, 0.32; in that of UAACGGGGGGCCACAGCAGAGGCGUUCACGUCCCAGCCCCUGUAAGAUUCGGGUGAAUCUGCGAGUUCUGCUGUAUAUCUC, 0.06.
As for UAACGGGGGGCCACAGCAGGAGCGUUCACGUCGCAGCCCCUGUCAGAUUCUGGUGAAUCUGCGAACUCUGCUGUAUAUCUC, the self-cleavage worked out at 0.35.
Then UAACGGGGGGCCACAGCAGUAGCGUUCACGUCGCAGCCCCUGUCAGAUUCUGGUGAAUCUGCGAAUUCUGCUGUACAUCUC, with 0.39; and UAACGGGGGGCCACAGCAGAGGCGUCCACGUCGCAGCCCCUGUCAGACUCUGGUGAAUCUGCGAAUUCUGCUGUAUAUCUC, with 0.05; and UAACGGGGGGCCACAGCAGAGGCGUCCACGUCGCAGCCCCUGUCAGUUUCUGGUGAAUCUGCGAAUUCUGCUGUAUAUCUC, with 0.52.
Consider UAACGGGGGGCCACAGCAGAGCCGUUCACGUCGCAGCCCCUGUCAGAUUCUGGUGAAUCUGCGAAUUCUGCUGUAUAUCUC, for which the self-cleavage stood at 0.41.
Turning to UAACGGGGGGCCACAGCAGAGGCGUUCACGUCGCAGCCCCUGUCAGAUUCUGGUGAAUCUGCGUAUUCUGCCGUAUAUCUC, the self-cleavage was found to be 0.34.
Then UAACGGGGGGCCACAGCAGAAGCGUUCGCGUCGCAGCCCCUGUCGGAUUCUGGUGAAUCUGCGAACUCUGCUGUAUAUCUC, with 0.22; and UAACGGGGGGCCACAGCAGAAGCGUUCGCGUCGCAGCCCCUGUCAGAUUCUGGUGAAUCUGCGAAUACUGCUGUAUAUCUC, with 0.5.
Then UAACGGGGGGCCACAGCAGGAGCGUUCACGUCGCAGCCCCUGUCAGAUUCUGGUGAAUCUGCGAAUUCUGCUGUAUAGCUC, with 0.27; and UAACGGGGGGCCACAGCAGUAGAGUUCACGUCGCAGCCCCUGUCAGAUUCUGGUGAAACUGCGAAUUCUGCUGUAUAUCUC, with 0.29.
Then UAACGGGGGGCCACAGCAGAGGCGUCCACGUCGCAGCCCCUGUCAGAUUCUGGUGAAUCUGCGAAUUCUGCCGUAUAUCUC, with 0.15.
Take UAACGGGGGGCCACAGCAGAAGCGUUCGCGUCGCUGCCCCUGUCAGAUUCUGGUGAAUCCGCGAAUUCUGCUGUAUAUCUC: the self-cleavage turned out to be 0.26.
Turning to UAACGGGGGGCCACAGCAGAAGCGUUCGCGUCGCAGCCCCUGUCAGAUGCUGGUGAAUCUGCGAAUUCUGCUGUAUAUCUC, the self-cleavage stood at 0.1.
In the case of UAACGGGGGGCCACAGCAGACGCGUUCACGUCGCAGCCCCUGUCGGAUUCUGGUGAACCUGCGAAUUCUGCUGUAUAUCUC, the self-cleavage was determined as 0.28.
With UAACGGGGGGCCACAGCAGAGGCGUUCACGUCGCAGCCCCUGUCAGAUUCUGGUGAAUCUGCGAAUCCUGCUGUAUAUCUC, the self-cleavage was found to be 0.13.
For the variant UAACGGGGGGCCACAGCAGAGGCGUUCACGUCGCAGCCCCAGUCAGAUUCUGGUGUAUCUGCGAAUUCUGCUGUAUAUCUC, the self-cleavage worked out at 0.37.
Then UAACGGGGGGCCACAGCAGAGGCGGUCACGUCGCAUCCCCUGUCAGAUUCUGGUGAGUCUGCGAAUUCUGCUGUAUAUCUC, with 0.07; and UAACGGGGGGCCACAGCAGUAGCGUUCACGUCGCAGCCCCUGUCUGAUUCUGGUGAAUCUGCGAAUUCGGCUGUAUAUCUC, with 0.04.
In the case of UAACGGGGGGCCACAGCAGUAGCGUUCACGUCGCAGCCCCUGUCAGAUUCCGGUGAAUCUGCGAAUUCUGCGGUAUAUCUC it was 0.1; in that of UAACGGGGGGCCACAGCAGAAGCGUUCGCGUCGCAGCCCCUGUCAGAUUCUGAUGAGUCUGCGAAUUCUGCUGUAUAUCUC, 0.15.
Then UAACGGGGGGCCACAGCAGAAGCGUUCGCGACGCAGCCCCUGUCAGAUUCUGGUGAAUCUGCGAAUUCUGAUGCAUAUCUC, with 0.17; and UAACGGGGGGCCACAGCAGAGGCGUUCACGUCGCAGCCCCUGUCGGAUUCUGGUGAAUCUGCGAAUUCUGCUGUAUAUCCC, with 0.3; and UAACGGGGGGCCACAGCAGAGGCGUUCACGUCGCAGUCCCUGUCAGAUUCUGGUGAAUCUGCGAAUUCUGCUGUAUAUCUC, with 0.41.
With UAACGGGGGGCCACAGCAGUAGCGUUCACGUCGCAGCCCCUGUCCGAUUCUGGUGAAUCUGCGGAUUCUGCUGUAUAUCUC, the self-cleavage was determined as 0.2.
Regarding UAACGGGGGGCCACAGCAGUAGCGUUCACGUCGCAGCCCCCGUCAGAUUCUGGUGAAUCUGCGAAUUCCGCUGUAUAUCUC, the self-cleavage is 0.
Then UAACGGGGGGCCACAGCAGAGGCGUUCACGUCGCAGCCCCUGUCAGAUUCUGGUGAAUCUGCGGACCCUGCUGUAUAUCUC, with 0.17; and UAACGGGGGGCCACAGCAGAGGCGUUCACGUCGCAGCCCCUGUCAGAUUCUGGUGAAUCCGCGAAUUCCGCAGUAUAUCUC, with 0.33; and UAACGGGGGGCCACAGCAGAGGCGUACACGUCGCGGCUCCUGCCAGAUUCUGGUGAAUCUGCGAAUUCUGCUGUAUAUCUC, with 0.09.
Then UAACGGGGGGCCACAGCAGAGGCGCUCACAUCGCAGCCCUUGACAGAUUCUGGUGAAUCCGCGAAUUCUGCUGUAUAUCUC, with 0.04.
